Measured values taken from patent US20220411472A1 (FRED HUTCHINSON CANCER CENTER, published 2022).

Legend:
[1] = target: T1, SH2-SpyTag (Nck2 SH2 domain with N-terminal spytag) (human); experiment: SDS-PAGE of the covalent capture of spy-SH2 by the Spycatcher domains of the 12-repeat subunit; lanes 0, 2, 15 min
T1 construct: also called spy-SH2; spytagged SH2 domain
T1 chain: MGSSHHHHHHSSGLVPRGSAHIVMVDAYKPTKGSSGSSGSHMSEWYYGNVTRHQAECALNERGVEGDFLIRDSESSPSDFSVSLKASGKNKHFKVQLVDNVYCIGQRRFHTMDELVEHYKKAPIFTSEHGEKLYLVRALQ

[2] = target: T2, Clover-SpyTag (Clover fluorescent protein with N-terminal spytag); experiment: reducing SDS-PAGE of the covalent capture of Clover-SpyTag by the Spycatcher domains of the 12-repeat subunit; lanes [Clover (µM)] 0, 10, 40
T2 construct: also called spytagged GFP derivative ('Clover'); tagged Clover

B1: cTRP24_Sub12_Spy (cTRP construct containing 12 repeats and inserted fusions of spycatcher domains; homodimer showing four Spycatcher domains, unloaded) (designed binder)
chain: MASSHHHHHHSSGLVPRGSSMGLDCEAIKAAAELGKAGISSEEILELLRAAHELGLDPEAIKAAAELGKAGISSEEILELLRAAHELGLDPEAIKAAAELGKAGISSEEILELLRAAHELGGSDGQDKGSDGQDKGGDS[about 80 residues omitted here]GGSDGQDKGSDGQDKGGLDPEAIKAAAELGKAGISSEEILELLRAAHELGLDPEAIKAAAELGKAGISSEEILELLRAAHELGLDPEAIKAAAELGKAGISSEEILELLRAAHELGLDPEAIKAAAELGKAGISSEEILELLRAAHELGLDPEAIKAAAELGKAGISSEEILELLRAAHELGLDPEAIKAAAELGKAGISSEEILELLRAAHELGGSDGQDKGSDGQDKGGDS[about 80 residues omitted here]GGSDGQDKGSDGQDKGGLDPEAIKAAAELGKAGISSEEILELLRAAHELGLDPEAIKAAAELGKAGISSEEILELLRAAHELGLDPECIKAAAELGKAGISSEEILELLRAAHELG
notes: also called cTRP2412SS-Spy; cTRP-Spy
[1]
  binding result: binds
[2]
  binding result: binds
